The list shows a part of the results.

The test system of the first test is HepG2. The test can be described thus: cytotoxicity call (relative viability < 0.9). The conditions noted are these: 10 µM.
As for `Cc1ccc(S(=O)(=O)Nc2ccc3c(c2)CC(=O)N([C@H](C)CO)C[C@H](C)[C@H](CN(C)Cc2ccc(Cl)c(Cl)c2)O3)cc1`, the cytotoxicity call was “active”.

On to `COc1ccc(S(=O)(=O)Nc2cccc3c2O[C@H](CN(C)C(=O)Nc2c(C)noc2C)[C@@H](C)CN([C@@H](C)CO)C3=O)cc1`, for which the cytotoxicity call is “inactive”.

Consider `Cc1noc(C)c1S(=O)(=O)Nc1ccc2c(c1)CC(=O)N([C@H](C)CO)C[C@@H](C)[C@@H](CN(C)S(=O)(=O)c1c(C)noc1C)O2`, for which the cytotoxicity call is “inactive”.

As for `O=C(O)CCCCCCCC(=O)O`, the cytotoxicity call is “inactive”.

On to `C[C@@H]1CCCCO[C@@H](CN(C)Cc2ccc3c(c2)OCO3)[C@H](C)CN([C@H](C)CO)C(=O)c2cc(NC(=O)c3ccccc3)ccc2O1`, for which the cytotoxicity call is “inactive”.

In the case of `COc1cccc(S(=O)(=O)Nc2ccc3c(c2)[C@H]2C[C@H](CC(=O)N4CCCCC4)O[C@@H](CO)[C@H]2O3)c1`, the cytotoxicity call is “inactive”.

As for `CC1(C)OC(=O)C2(C(=O)O1)[C@@H](c1ccc(Br)cc1)CC(=O)C[C@H]2c1ccc(Br)cc1`, the cytotoxicity call was “inactive”.

Turning to `CCN(CC)CC#CCOC(=O)C(O)(c1ccccc1)C1CCCCC1.Cl` (stereo unspecified), the cytotoxicity call was “inactive”.

For `C[C@H](CO)N1C[C@H](C)[C@H](CN(C)S(=O)(=O)c2ccc(F)cc2)OCCCC[C@H](C)Oc2ccc(NS(C)(=O)=O)cc2C1=O`, the cytotoxicity call is “inactive”.

With `C[C@@H]1CCCCO[C@H](CN(C)S(=O)(=O)c2ccc(F)cc2)[C@@H](C)CN([C@H](C)CO)C(=O)c2cc(NC(=O)NC3CCCCC3)ccc2O1`, the cytotoxicity call was “active”.

With `Cc1noc(C)c1NC(=O)N(C)C[C@H]1Oc2cc(C#CCN(C)C)ccc2S(=O)(=O)N([C@@H](C)CO)C[C@H]1C`, the cytotoxicity call is “inactive”.

Consider `C[C@@H]1CCCCO[C@@H](CN(C)C(=O)C2CCCCC2)[C@@H](C)CN([C@H](C)CO)C(=O)c2cc(NC(=O)C3CCCCC3)ccc2O1`, for which the cytotoxicity call is “inactive”.

Consider `O=c1cc(CN2CCCC2)nc2n1CCCNC2`, for which the cytotoxicity call is “inactive”.

Regarding `C[C@H](CO)N1C[C@H](C)[C@H](CN(C)C(=O)c2ccccc2)OCCCC[C@H](C)Oc2ccc(NS(=O)(=O)c3ccc(F)cc3)cc2C1=O`, the cytotoxicity call was “inactive”.

In the case of `Cn1cncc1CO`, the cytotoxicity call was “inactive”.

For the compound `CN1C(=O)c2cc(NC(=O)C3CCOCC3)ccc2OC[C@@H]2O[C@H](CC(=O)NCc3ccc4c(c3)OCO4)CC[C@@H]21`, the cytotoxicity call is “inactive”.

`COc1ccc(NC(=O)N(C)C[C@H]2OCCCC[C@@H](C)Oc3ccc(NC(=O)Nc4ccc(C(F)(F)F)cc4)cc3C(=O)N([C@@H](C)CO)C[C@H]2C)cc1`: the cytotoxicity call is “inactive”.

As to `O=C(N[C@H](c1ccc(Cl)cc1)c1ccsc1)C1CCN(Cc2ccc(Oc3ccccc3)cc2)CC1`, the cytotoxicity call was “inactive”.

Turning to `C[C@@H]1CN([C@@H](C)CO)C(=O)c2cccc(NC(=O)C3CC3)c2O[C@@H]1CN(C)S(=O)(=O)c1cccs1`, the cytotoxicity call is “inactive”.

For `C=CC[C@@H](CC(=O)NCCO)C(=O)NCCOC(=O)[C@H](CC=C)NC(=O)OCC1c2ccccc2-c2ccccc21`, the cytotoxicity call is “inactive”.

`CCCN(C)C[C@H]1OCCCC[C@H](C)Oc2ccc(NC(=O)CCC(F)(F)F)cc2C(=O)N([C@@H](C)CO)C[C@H]1C`: the cytotoxicity call was “inactive”.

In another test the test system is S. aureus RN4220. The test can be described thus: growth inhibition call (relative growth <= 0.2). The note with it: 50 µM.
With `C[C@@H]1CN([C@@H](C)CO)S(=O)(=O)c2ccc(C#C[C@@H](C)O)cc2O[C@@H]1CN(C)C`, the growth inhibition call was “inactive”.

Consider `C[C@H](CO)N1C[C@H](C)[C@@H](CN(C)Cc2ccncc2)OCCCC[C@H](C)Oc2ccc(NC(=O)Nc3ccccc3)cc2C1=O`, for which the growth inhibition call is “inactive”.

Turning to `Cc1ccc(S(=O)(=O)N(C)C[C@@H]2OCCCC[C@H](C)Oc3ccc(NS(=O)(=O)c4ccc(F)cc4)cc3C(=O)N([C@@H](C)CO)C[C@@H]2C)cc1`, the growth inhibition call was “inactive”.

Consider `Cc1noc(C)c1S(=O)(=O)Nc1cccc2c1O[C@H](CN(C)S(=O)(=O)c1ccc(F)cc1)[C@H](C)CN([C@H](C)CO)C2=O`, for which the growth inhibition call was “inactive”.

With `CCOC(=O)CCCCCC(=O)Nc1ccc2c(c1)C(=O)N([C@H](C)CO)C[C@@H](C)[C@@H](CN(C)S(=O)(=O)c1ccc(Cl)cc1)OCCCC[C@H](C)O2`, the growth inhibition call is “inactive”.

Consider `C[C@@H]1CN([C@@H](C)CO)C(=O)c2cc(NC(=O)Nc3ccc4c(c3)OCO4)ccc2O[C@H]1CN(C)C(=O)Nc1ccc(C(F)(F)F)cc1`, for which the growth inhibition call was “inactive”.

Consider `Cc1ccc(S(=O)(=O)N(C)C[C@@H]2Oc3c(NC(=O)C4CC4)cccc3C(=O)N([C@@H](C)CO)C[C@H]2C)cc1`, for which the growth inhibition call was “inactive”.

For the compound `COc1ccc(NC(=O)Nc2ccc3c(c2)C(=O)N([C@@H](C)CO)C[C@@H](C)[C@@H](CN(C)Cc2ccc(Cl)c(Cl)c2)OCCCC[C@H](C)O3)cc1`, the growth inhibition call was “inactive”.

On to `CNCCC=C1c2ccccc2CCc2ccccc21.Cl`, for which the growth inhibition call is “inactive”.

For the compound `COc1ccc(S(=O)(=O)N(C)C[C@H]2Oc3c(NS(=O)(=O)c4ccccc4)cccc3C(=O)N([C@@H](C)CO)C[C@H]2C)cc1`, the growth inhibition call is “inactive”.

Regarding `CN(C)CC(=O)N[C@H]1CC[C@H](CCNS(=O)(=O)c2ccccc2)O[C@H]1CO`, the growth inhibition call was “inactive”.

Regarding `C[C@@H]1CN([C@H](C)CO)C(=O)c2cc(NC(=O)Nc3ccccc3)ccc2O[C@H]1CN(C)C(=O)Nc1cccc2ccccc12`, the growth inhibition call was “inactive”.

Consider `COCC(=O)Nc1ccc2c(c1)OC[C@H](C)N(Cc1ccccc1OC)C[C@@H](C)[C@@H](OC)CN(C)C2=O`, for which the growth inhibition call is “inactive”.

In the case of `COCCNC(=O)C[C@H]1CC[C@@H]2[C@H](COc3ccc(NC(=O)Nc4cccc(F)c4)cc3C(=O)N2C)O1`, the growth inhibition call is “inactive”.

`COc1cccc(N2CCN(C3=Nc4c(F)cccc4[C@H](CC(=O)O)N3c3cc(C(F)(F)F)ccc3OC)CC2)c1`: the growth inhibition call is “inactive”.

As for `COc1ccc(-c2cc(=O)c3c(OC)c(OC)c(OC)cc3o2)cc1OC`, the growth inhibition call is “inactive”.

With `C[C@@H]1CN([C@@H](C)CO)S(=O)(=O)c2ccc(C#Cc3ccc(F)cc3)cc2O[C@H]1CN(C)S(=O)(=O)c1ccc(F)cc1`, the growth inhibition call was “inactive”.

Consider `O=C(C[C@H]1CC[C@H]2[C@@H](COC[C@H](O)CN2S(=O)(=O)c2ccccc2)O1)NCc1ccc2c(c1)OCO2`, for which the growth inhibition call was “inactive”.

Consider `C[C@@H]1CN([C@@H](C)CO)C(=O)c2cc(NC(=O)Cc3ccccc3)ccc2O[C@@H](C)CCCCO[C@@H]1CN(C)Cc1ccc2c(c1)OCO2`, for which the growth inhibition call was “inactive”.

With `Cc1ccc(S(=O)(=O)Nc2ccc3c(c2)CC(=O)N([C@H](C)CO)C[C@H](C)[C@H](CN(C)Cc2ccc(Cl)c(Cl)c2)O3)cc1`, the growth inhibition call is “inactive”.

On to `COc1ccc(S(=O)(=O)Nc2cccc3c2O[C@H](CN(C)C(=O)Nc2c(C)noc2C)[C@@H](C)CN([C@@H](C)CO)C3=O)cc1`, for which the growth inhibition call is “inactive”.

As for `Cc1noc(C)c1S(=O)(=O)Nc1ccc2c(c1)CC(=O)N([C@H](C)CO)C[C@@H](C)[C@@H](CN(C)S(=O)(=O)c1c(C)noc1C)O2`, the growth inhibition call was “inactive”.

For the compound `O=C(O)CCCCCCCC(=O)O`, the growth inhibition call is “inactive”.

On to `C[C@@H]1CCCCO[C@@H](CN(C)Cc2ccc3c(c2)OCO3)[C@H](C)CN([C@H](C)CO)C(=O)c2cc(NC(=O)c3ccccc3)ccc2O1`, for which the growth inhibition call was “inactive”.

Take `COc1cccc(S(=O)(=O)Nc2ccc3c(c2)[C@H]2C[C@H](CC(=O)N4CCCCC4)O[C@@H](CO)[C@H]2O3)c1`: the growth inhibition call is “inactive”.

As to `CC1(C)OC(=O)C2(C(=O)O1)[C@@H](c1ccc(Br)cc1)CC(=O)C[C@H]2c1ccc(Br)cc1`, the growth inhibition call was “inactive”.

`CCN(CC)CC#CCOC(=O)C(O)(c1ccccc1)C1CCCCC1.Cl` (stereo unspecified): the growth inhibition call was “inactive”.

Turning to `C[C@H](CO)N1C[C@H](C)[C@H](CN(C)S(=O)(=O)c2ccc(F)cc2)OCCCC[C@H](C)Oc2ccc(NS(C)(=O)=O)cc2C1=O`, the growth inhibition call was “inactive”.

In the case of `C[C@@H]1CCCCO[C@H](CN(C)S(=O)(=O)c2ccc(F)cc2)[C@@H](C)CN([C@H](C)CO)C(=O)c2cc(NC(=O)NC3CCCCC3)ccc2O1`, the growth inhibition call was “inactive”.

On to `Cc1noc(C)c1NC(=O)N(C)C[C@H]1Oc2cc(C#CCN(C)C)ccc2S(=O)(=O)N([C@@H](C)CO)C[C@H]1C`, for which the growth inhibition call was “inactive”.

As to `C[C@@H]1CCCCO[C@@H](CN(C)C(=O)C2CCCCC2)[C@@H](C)CN([C@H](C)CO)C(=O)c2cc(NC(=O)C3CCCCC3)ccc2O1`, the growth inhibition call is “inactive”.

With `O=c1cc(CN2CCCC2)nc2n1CCCNC2`, the growth inhibition call was “inactive”.

As to `C[C@H](CO)N1C[C@H](C)[C@H](CN(C)C(=O)c2ccccc2)OCCCC[C@H](C)Oc2ccc(NS(=O)(=O)c3ccc(F)cc3)cc2C1=O`, the growth inhibition call was “inactive”.

On to `Cn1cncc1CO`, for which the growth inhibition call is “inactive”.

On to `CN1C(=O)c2cc(NC(=O)C3CCOCC3)ccc2OC[C@@H]2O[C@H](CC(=O)NCc3ccc4c(c3)OCO4)CC[C@@H]21`, for which the growth inhibition call was “inactive”.

On to `COc1ccc(NC(=O)N(C)C[C@H]2OCCCC[C@@H](C)Oc3ccc(NC(=O)Nc4ccc(C(F)(F)F)cc4)cc3C(=O)N([C@@H](C)CO)C[C@H]2C)cc1`, for which the growth inhibition call was “inactive”.

Consider `O=C(N[C@H](c1ccc(Cl)cc1)c1ccsc1)C1CCN(Cc2ccc(Oc3ccccc3)cc2)CC1`, for which the growth inhibition call was “inactive”.

In the case of `C[C@@H]1CN([C@@H](C)CO)C(=O)c2cccc(NC(=O)C3CC3)c2O[C@@H]1CN(C)S(=O)(=O)c1cccs1`, the growth inhibition call was “inactive”.

For `C=CC[C@@H](CC(=O)NCCO)C(=O)NCCOC(=O)[C@H](CC=C)NC(=O)OCC1c2ccccc2-c2ccccc21`, the growth inhibition call was “inactive”.

Regarding `CCCN(C)C[C@H]1OCCCC[C@H](C)Oc2ccc(NC(=O)CCC(F)(F)F)cc2C(=O)N([C@@H](C)CO)C[C@H]1C`, the growth inhibition call is “inactive”.

Values taken from the antibiotic and cytotoxicity screens of Wong et al. (2023).
